Data from the supplement of paper PMC10126150.
Sequences with one replicate were seen in a single cluster, so their values are uncertain.

Tested on: ATP
Assay: switch fluorescence ratio, 500 uM ATP over buffer (Cy3 cluster intensity, sum of 5 cycles each) (fold (ratio)); higher = stronger signal-on switching upon ATP binding; sequences stand for … in TCGTCGGCAGCGTCAGATGTGTATAAGAGACAGTTTTTTTTTTTTTTTTTTTTTTTTT…TC
Conditions: aptamer strand: ATP DNA aptamer (quencher-CACCTGGGGGAGTATTGCGGAGGAAGG + anchor), 100 nM annealed; ATP concentration: 500 uM; one replicate
In short: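 Clusters carrying Cy3-labelled switching strands on a modified Illumina MiSeq flow-cell were annealed to 100 nM quencher-labelled ATP aptamer and imaged in selection buffer. They were imaged again after 15 min with 500 uM ATP at 22 °C, over five buffer/ATP cycles with NaOH stripping and re-annealing in between. For each cluster, the fluorescence ratio is the summed Cy3 intensity of the target cycles divided by that of the buffer cycles, averaged per switch-domain sequence. Clusters outside 100-1000 RFU were left out.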
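Also: ATP exposure 15 min at 22 °C before imaging.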

CCGGAGTGGG
switch fluorescence ratio: 4.56

ACTCCCGGTC
switch fluorescence ratio: 1.88

CATTGAAAAC
switch fluorescence ratio: 1.06

TTGTAAAAAG
switch fluorescence ratio: 1.04

CCAGGTCAGG
switch fluorescence ratio: 1.16

GGGTGGCGAA
switch fluorescence ratio: 1.02

CATGGCATTT
switch fluorescence ratio: 0.941

TCTGTATTGT
switch fluorescence ratio: 0.971

CGGTGGTGCC
switch fluorescence ratio: 0.977

TCGCGTTTGA
switch fluorescence ratio: 1.03

GTCGATAACG
switch fluorescence ratio: 0.983

GTACTAGGAA
switch fluorescence ratio: 0.994

TTCTACACT
switch fluorescence ratio: 0.996

ATGGCAGTAT
switch fluorescence ratio: 0.995

AGTCATCGTG
switch fluorescence ratio: 1.09

CACGGGTCCA
switch fluorescence ratio: 1.01

GGCTTGTAGG
switch fluorescence ratio: 1.04

CCGTTAACGC
switch fluorescence ratio: 1.23

AGGTTTGACC
switch fluorescence ratio: 0.966

TAGAATCCCT
switch fluorescence ratio: 0.994

GCGACGGTAG
switch fluorescence ratio: 1.02

TTCTTGCAAT
switch fluorescence ratio: 1.23

ATCTGCTCCG
switch fluorescence ratio: 1.11

AGCAGAGTAA
switch fluorescence ratio: 0.988

GGAAAGAAC
switch fluorescence ratio: 1

GGAAGGTGAT
switch fluorescence ratio: 1.12

CAGGTCCTTG
switch fluorescence ratio: 1.03

AGGACCCGTC
switch fluorescence ratio: 1.03

TCCTGTTCTT
switch fluorescence ratio: 0.942

TTGGTACCA
switch fluorescence ratio: 0.984

GCTTAATGGG
switch fluorescence ratio: 0.939

AGGACCGTCC
switch fluorescence ratio: 1.06

AAAAGGCCGC
switch fluorescence ratio: 0.99

AAAGATAGTC
switch fluorescence ratio: 0.941

ACAAATCGAC
switch fluorescence ratio: 1.1

GGTGTATGAC
switch fluorescence ratio: 0.982

AAGGCACATT
switch fluorescence ratio: 1.14

TAGCAGGTGT
switch fluorescence ratio: 2.5

AAACAAGAGT
switch fluorescence ratio: 0.983

TGGAATTGGG
switch fluorescence ratio: 0.945

GTATGGGGAG
switch fluorescence ratio: 1.06

TGCAAAATGT
switch fluorescence ratio: 1.02

TCTCGCGACT
switch fluorescence ratio: 1.17

GTTGCAGGGC
switch fluorescence ratio: 1.06

AGCTAACAG
switch fluorescence ratio: 1

GCATTCTACC
switch fluorescence ratio: 1.35

CGTTTTTGT
switch fluorescence ratio: 1.05

TTGCAGGAGT
switch fluorescence ratio: 1.15

CGTGCTGCCC
switch fluorescence ratio: 1.01

GCTTTGGGGT
switch fluorescence ratio: 0.954

TCCATAGTAA
switch fluorescence ratio: 3.37

TCGCCCGGGT
switch fluorescence ratio: 1.11

CCTAAGTGGA
switch fluorescence ratio: 0.965

GTGTGAAGGA
switch fluorescence ratio: 1

AGAAGTTAGT
switch fluorescence ratio: 0.957

GGTAGATGAC
switch fluorescence ratio: 1.05

TTGGCAATCC
switch fluorescence ratio: 1.71

ACGTCTCATC
switch fluorescence ratio: 1.02

CGGGGAACAA
switch fluorescence ratio: 1.18

ATAGCGTTAT
switch fluorescence ratio: 0.972

GATACCGCAT
switch fluorescence ratio: 4.3

CTGTAAAAAG
switch fluorescence ratio: 1.04

AACATTTCAG
switch fluorescence ratio: 0.988

AAAGGGTCCC
switch fluorescence ratio: 0.979

GGCCTGTTGG
switch fluorescence ratio: 0.964

TGCCTTGGTG
switch fluorescence ratio: 1.33

TCGTCAAGA
switch fluorescence ratio: 1.03

ACAGGGCCTC
switch fluorescence ratio: 0.946

TTTGTGATGC
switch fluorescence ratio: 1.09

TATGTGATTA
switch fluorescence ratio: 1.03

GGGCTTCAGT
switch fluorescence ratio: 0.974

ATACTCAATA
switch fluorescence ratio: 1.1

CTTGACGATG
switch fluorescence ratio: 0.95

ATCTGCCAAT
switch fluorescence ratio: 1.25

TTGCGGAATA
switch fluorescence ratio: 1.04

CCTAGTAGTG
switch fluorescence ratio: 1.01

ATCAACTCAG
switch fluorescence ratio: 1.03

TGCAAGGGCT
switch fluorescence ratio: 1.02

AGAATATTCG
switch fluorescence ratio: 0.992

ACTGTTTTAC
switch fluorescence ratio: 1.03

AAATAGTTAT
switch fluorescence ratio: 0.98

GGAATATATT
switch fluorescence ratio: 0.988

TTAAGCGGGG
switch fluorescence ratio: 0.992

TTTAAGAATG
switch fluorescence ratio: 0.98

ACGGCCGTGT
switch fluorescence ratio: 1.02

ATTAAGTATT
switch fluorescence ratio: 1.12

CTTTACTGCT
switch fluorescence ratio: 0.939

CGTCCGAGAG
switch fluorescence ratio: 1.5

TGTCACTGAG
switch fluorescence ratio: 1.09

AACTATTGTG
switch fluorescence ratio: 1.06

GATTCGGGTC
switch fluorescence ratio: 0.953

TTTGGTTAGA
switch fluorescence ratio: 1.05

ACTATGTAA
switch fluorescence ratio: 1.02

GCTGCACGTC
switch fluorescence ratio: 1.05

AAAGGAAGAC
switch fluorescence ratio: 1.14

TTGTATTGCT
switch fluorescence ratio: 1.01

ACATACCTGC
switch fluorescence ratio: 1.43

AAGTCTCTTT
switch fluorescence ratio: 0.979

ATGGTCCATA
switch fluorescence ratio: 1.03

TCGGGTATTG
switch fluorescence ratio: 1.11

TTTTAACGAG
switch fluorescence ratio: 0.989

CGTAGGAGAA
switch fluorescence ratio: 0.98

CGGACTTGGC
switch fluorescence ratio: 1.06

GTGTCTTGTT
switch fluorescence ratio: 0.983

AATCTAATTT
switch fluorescence ratio: 1.02

AAGTCCTGAC
switch fluorescence ratio: 1.06

TGGATGACAT
switch fluorescence ratio: 0.997

CGGAGGACTT
switch fluorescence ratio: 1.03

CGCTGGTAGA
switch fluorescence ratio: 1.06

CGGGTATCCT
switch fluorescence ratio: 1.01

ATAAGGGCAT
switch fluorescence ratio: 1.02

TAGGTTTTGC
switch fluorescence ratio: 0.996

CAGTCTGCAC
switch fluorescence ratio: 1.23

CAATTTCAAG
switch fluorescence ratio: 0.964

CAAGAGGTCA
switch fluorescence ratio: 1

GTTTATCCAG
switch fluorescence ratio: 0.996

ATGAGTTT
switch fluorescence ratio: 0.953

CACATATTAG
switch fluorescence ratio: 1.01

GACCTATAAA
switch fluorescence ratio: 1

CGGCAACACG
switch fluorescence ratio: 1.66

GTAGACGATC
switch fluorescence ratio: 1

GGACACATGA
switch fluorescence ratio: 1.04

GCCCAATGTT
switch fluorescence ratio: 1.05

CCTGGTTAGA
switch fluorescence ratio: 1.02

TCGATTGAAG
switch fluorescence ratio: 0.982

ATATGTATTA
switch fluorescence ratio: 0.96

TTACTACCCC
switch fluorescence ratio: 1.67

TAATTGCTAC
switch fluorescence ratio: 1.03

AGGGCCCTTC
switch fluorescence ratio: 0.979

GCGGGTGGGC
switch fluorescence ratio: 0.913

ACAGTCACCA
switch fluorescence ratio: 1.14

CTCGTAAATG
switch fluorescence ratio: 0.976

AGGTCACCGT
switch fluorescence ratio: 0.97

AGTCAAGGGC
switch fluorescence ratio: 0.978

GAATTGCAGC
switch fluorescence ratio: 0.975

ACACACCCGC
switch fluorescence ratio: 1.33

GAACATATAG
switch fluorescence ratio: 0.999

ATGGTTTACA
switch fluorescence ratio: 0.984

TAACAGTTCC
switch fluorescence ratio: 1.28

ACGACTTGCC
switch fluorescence ratio: 1.12

GGACATGGGG
switch fluorescence ratio: 1.01

TTTTCAGTGC
switch fluorescence ratio: 1.75

CACCTGGGC
switch fluorescence ratio: 1.09

ACTGGATCT
switch fluorescence ratio: 0.998

TAGTTCAAGT
switch fluorescence ratio: 1.01

CGGCGTTGGG
switch fluorescence ratio: 1

CGGGACTATC
switch fluorescence ratio: 1.02

GGAGTATATT
switch fluorescence ratio: 0.994

AGCACAGGAA
switch fluorescence ratio: 1.02

GACTTACGCC
switch fluorescence ratio: 1.36

AATGATTTTA
switch fluorescence ratio: 0.999

TCAAGGGCTG
switch fluorescence ratio: 1.08

TTTTCAGCA
switch fluorescence ratio: 1.01

GGCAGCCGAC
switch fluorescence ratio: 1.01

CCGTGGTATG
switch fluorescence ratio: 1.04

CTGATAGAGA
switch fluorescence ratio: 1.03

CGTAGTGGCC
switch fluorescence ratio: 0.999
